This is an account of results in PubChem BioAssay AID463173 (ICCB-Longwood Screening Facility, Harvard Medical School, 2010).

Hit rate of the full screen: of about 52,000 compounds, about 4,300 (8.3%) were called active. No stated cut-off is given here; in the data, active means survival mostly below about 52% (no sharp cut-off); inactive means mostly above about 56%. The list shows a part of the results.

For the test, the system named is DeltatarO mutant. In words: S. aureus survival, RN4220 and DeltatarO strains – OD600, teichoic acid synthesis inhibitors, primary screen (AID 463173). The following applies: S. aureus RN4220 wild type/DeltatarO growth, OD600, 18 h, active compounds read low, screened at 18.75 µg/mL (by protocol).
`O=C(NCCc1ccc(Cl)cc1)c1ccc(Nc2nc3ccccc3n3nnnc23)cc1`: the survival was inactive: 94%.

As to `COCCn1c(-c2ccccc2)n[nH]c1=S`, the survival is inactive: 105%. Under `COc1ccc(CNCc2ccc(C(=O)O)s2)cc1` stands inactive: 101%; under `Cc1cccc(NC(=O)C(=O)NCCCN2CCOCC2)c1`, inactive: 142%. Turning to `CCOc1ccc(NC(=O)c2sc(-n3nc(C)c(CCC(C)C)c3C)nc2C)cc1`, the survival was inactive: 102%. The same measure for `COc1ccc(NC(=O)c2nc(SCc3ccc(F)cc3)ncc2Cl)cc1`: inactive: 69%; for `COc1cccc(CNC(=O)CN2C(=O)COc3ccc(S(=O)(=O)N4CCCCC4)cc32)c1`: inactive: 95%; for `CCn1cc2nc(SCc3cc(C)ccc3C)n(Cc3ccc(Cl)cc3)c(=O)c2n1`: inactive: 86%.

Turning to `CCN(CC)c1ccc(CN(C(=O)c2cc(=O)c3ccccc3o2)C2CCS(=O)(=O)C2)cc1` (stereo not drawn), the survival was inactive: 52%. Under `Nc1ccc2nc(-c3ccc(N)c(Cl)c3)[nH]c2c1` stands inactive: 98%. The same measure for `Cn1cc(S(=O)(=O)N2CCCC2)cc1C(=O)Nc1ccc(F)cc1F`: inactive: 77%; for `CCOC(=O)c1ccc(NC(=O)Cc2noc3ccc(C)cc23)cc1`: active: 45%. The same measure for `Cn1ccc2cc(S(=O)(=O)N3CCCC(C(=O)NCc4ccccc4F)C3)ccc21` (stereo not drawn): inactive: 92%; for `CCc1nc2ccccc2n1CC(C)C(=O)O` (stereo not drawn): inactive: 96%. Turning to `CN(C)c1ccc(NC(=O)CSc2nc(N)cc(=O)[nH]2)cc1`, the survival was inactive: 101%.

For the molecule `Cc1ccccc1-c1nc(CNC(=O)NC2CCCCC2)c(C)o1`, the survival was inactive: 67%. Under `CCCCN(CCCC)CCCNC(=O)c1cc(-c2ccc(Cl)s2)nc2ccccc12` stands inactive: 71%. The same measure for `CC(C)c1ccc(C2CC(=O)N3CN(C4CCCCC4)CSC3=C2C#N)cc1` (stereo not drawn): inactive: 69%; for `COc1ccc(-n2ncc3c2ncn2nc(-c4ccc(OC)c(OC)c4)nc32)cc1`: inactive: 66%; for `CC1=C(C(=O)Nc2ccccc2)C(c2ccc(Br)cc2)n2nc(CCCO)nc2N1` (stereo not drawn): inactive: 56%. `CCCc1cc(=O)[nH]c(Nc2cc(Cl)cc(Cl)c2)n1`: the survival is active: 6%.

Turning to `COc1ccccc1N1CCN(C(=O)c2nn(C)c3c2CS(=O)(=O)c2ccccc2-3)CC1`, the survival is inactive: 61%. The same measure for `Cc1nc(-c2ccc(S(=O)(=O)N3CCN(c4ccccc4F)CC3)cc2)co1`: inactive: 94%. The same measure for `CCC(CC)C(=O)Nc1ccc(S(=O)(=O)N2CCC(c3nc4ccccc4s3)CC2)cc1`: inactive: 67%; for `FC(F)(F)c1cccc(Nc2nc3nonc3nc2Nc2ccc(Cl)cc2)c1`: active: -16%.

As to `COc1ccc(C)cc1NC(=O)CN(C)S(=O)(=O)c1ccc2c(c1)c(=O)n(C)c(=O)n2C`, the survival is inactive: 78%. For `Cc1ccccc1NC(=O)c1c(C)oc2ccc(O)c(CN3CCCCCC3)c12`, the survival is inactive: 107%. Under `CCN(C(=O)Cn1c(C(=O)OC)cc2sccc21)c1cccc(C)c1` stands inactive: 93%. Turning to `Cc1ccccc1NC(=O)c1sc2nc(-c3cc4ccccc4oc3=O)[nH]c(=O)c2c1C`, the survival is inactive: 52%. The same measure for `COc1ccc(/C=C/C(=O)NCc2ccccn2)cc1OC`: inactive: 81%; for `CCCn1cc(S(=O)(=O)c2ccc(C)c(C)c2)c(=O)c2cc(F)c(N3CCCCC3)cc21`: inactive: 113%; for `CC1SC(=NC(=O)c2ccco2)NC1=O` (stereo not drawn): inactive: 106%. With `O=C(CC(c1ccccc1)C1CCCCC1=O)c1ccco1` (stereo not drawn), the survival was inactive: 81%. As for `CCCCC12CN3CC(C)(CN(C1)C3c1ccc(OCc3ccccc3)cc1)C2=O` (stereo not drawn), the survival was inactive: 78%. Under `Cc1ccc(-c2nc3sc(CCNC(=O)c4ccc(F)c(F)c4)c(C)n3n2)cc1` stands inactive: 76%; under `Cc1ccc(CNC(=O)CCCCCn2c(=O)c3sccc3n(CC(=O)N3CCCCC3C)c2=O)cc1` (stereo not drawn), active: 48%; under `O=C(CCCCCn1c(=O)[nH]c2ccccc2c1=O)N1CCN(c2cccc(C(F)(F)F)c2)CC1`, inactive: 84%. The same measure for `O=C(C1CCN(S(=O)(=O)c2cccs2)CC1)N1CCN(c2ccccc2F)CC1`: inactive: 145%; for `Cc1cc(Nc2cc(Cl)ccc2C)n2nc(-c3ccccc3)nc2n1`: inactive: 49%; for `CC(=O)c1cccc(NC(=O)Cn2ccn3nc(-c4ccccc4)cc3c2=O)c1`: inactive: 83%. The same measure for `Cc1c(CC(=O)NCCc2ccccc2)c(=O)oc2c(C)c3occ(C(C)(C)C)c3cc12`: inactive: 62%; for `O=C(COc1ccccc1-c1nc(-c2ccccc2)no1)Nc1ccc([N+](=O)[O-])cc1`: active: 44%; for `Cc1cc(C)c2c(NC(=O)c3ccccc3Cl)c(C(=O)NCc3ccc(Cl)cc3)sc2n1`: inactive: 70%. In the case of `Cc1ccc(CN(Cc2cccn2-c2nnc(N3CCCC3=O)s2)C(=O)Nc2ccccc2Cl)cc1`, the survival was inactive: 104%.

For the molecule `Cc1nc2c(-c3ccc(F)cc3)c(C)nn2c(C)c1CCC(=O)NCc1ccc(F)cc1`, the survival is inactive: 78%. Under `COc1ccc(OCCCn2c(C3CC(=O)N(c4ccc(F)cc4)C3)nc3ccccc32)cc1` (stereo not drawn) stands inactive: 66%. Under `CCOC(=O)c1c(C)[nH]c(CCC(=O)NCc2ccc(OC)cc2OC)c1C` stands inactive: 79%; under `CC1CCCCN1C(=O)Cn1nnc2c(cnn2-c2ccccc2)c1=O` (stereo not drawn), inactive: 79%; under `CC(=O)Nc1cccc(NC(=O)CSc2nccn2Cc2ccccc2)c1`, inactive: 91%. Under `Cc1ccccc1-c1noc(-c2ccc(NCc3cccnc3)c([N+](=O)[O-])c2)n1` stands inactive: 98%. Take `CC1=C(c2ccc(C(C)C)cc2)S(=O)(=O)N=C1N1CCC(C(=O)NCc2ccc(C)o2)CC1`: the survival is inactive: 67%. As for `CCOc1cccc2sc(N3CCN(C(=O)c4ccco4)CC3)nc12`, the survival is inactive: 76%. Under `Cn1c(CN2CCOCC2)nc2cc(NC(=O)c3ccccc3[N+](=O)[O-])ccc21` stands inactive: 100%; under `Cc1ccc(NC(=O)CN2C(=O)c3ccccc3C2=O)c(C)c1`, inactive: 99%. The same measure for `COc1cc(OC)c(NC(=O)c2ccc(-n3cnc4cccnc43)cc2)cc1Cl`: active: 52%; for `CCOC(=O)CC(NC(=O)Cn1nnc(-c2ccc(Cl)cc2)n1)c1ccc(OC)cc1` (stereo not drawn): inactive: 86%; for `O=C(NCCCN1CCN(c2ccc(F)cc2)CC1)Nc1ccccc1Cl`: inactive: 118%. Under `COc1ccc(NC(=O)c2nnn(-c3ccc(C(C)C)cc3)c2C)c(OC)c1` stands inactive: 87%.
